Measured values: PubChem BioAssay AID624417 (National Center for Advancing Translational Sciences (NCATS), 2012)
Hit rate of the full screen: of about 410,000 compounds, about 6,400 (1.6%) were called active. Inconclusive means that the source gave no clear call. Such entries were picked first, then a sample of the others. Calls follow the shape of the dose curve; as a rule, active = well fitted inhibition curve with a large enough effect; inconclusive = small, poorly fitted or top-dose-only effect; inactive = no such curve, though single readings can be large or run the other way. Potencies of inconclusive entries are left out as doubtful fits.

biological target: Glucagon-like peptide 1 receptor (Homo sapiens) (UniProt P43220); experiment: qHTS of GLP-1 Receptor Inverse Agonists (Inhibition Mode); conditions: HEK293 GLP-1R CRE-luciferase, luminescence, 24 h, GLP-1R form is constitutively active; activity change, negative = inhibition: at 38.3 µM (top of the series) unless noted; also: nearly all actives have a fitted effect of over 55% in size
UniProt P43220, sequence (P43220 whole entry, looked up): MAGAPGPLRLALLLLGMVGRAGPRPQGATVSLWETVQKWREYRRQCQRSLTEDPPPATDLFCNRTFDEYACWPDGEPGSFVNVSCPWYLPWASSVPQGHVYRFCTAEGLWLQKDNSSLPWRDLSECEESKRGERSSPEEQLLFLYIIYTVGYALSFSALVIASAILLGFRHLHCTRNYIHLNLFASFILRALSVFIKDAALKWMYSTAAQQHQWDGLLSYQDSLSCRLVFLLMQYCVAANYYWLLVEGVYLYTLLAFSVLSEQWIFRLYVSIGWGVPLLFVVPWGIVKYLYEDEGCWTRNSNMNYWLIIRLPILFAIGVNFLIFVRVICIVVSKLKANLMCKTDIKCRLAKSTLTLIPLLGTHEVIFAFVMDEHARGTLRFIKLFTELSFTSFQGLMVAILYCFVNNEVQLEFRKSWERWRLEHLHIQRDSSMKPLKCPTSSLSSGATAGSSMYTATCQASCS
In short: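 Cells are plated, allowed 12 hours at 37 deg C, then treated with compounds for 24 hr before luciferase detection reagent is added and luminescence is read after 12 min at room temperature. The HEK293 line carries constitutively active GLP-1R with a cAMP-responsive reporter.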
% is scaled to controls: 0 for no effect and ±100 for the full control effect; potency is read from the fitted curve at half-maximal effect; tags tell the direction and shape of the fitted curve.

| Structure (SMILES) | Potency | activity change, negative = inhibition |
| --- | --- | --- |
| C[C@H](NC(=O)c1ncn(Cc2ccccc2)c1C(=O)N[C@@H](C)c1ccccc1)c1ccccc1 | inconclusive [inhibitor, full curve, poor fit] | – |
| CC1CCN(CCNC(=O)C2CCN(S(=O)(=O)c3cccc4nsnc34)CC2)CC1 | – | inactive: 0.0987% |
| COc1cccc(Oc2cn[nH]c2-c2ccc(O)cc2O)c1 | – | inactive: 43.1% |
| COc1ccc(C(=S)N2CCOCC2)cc1OS(=O)(=O)c1ccc(Br)cc1 | inconclusive [inhibitor, partial curve, poor fit] | – |
| O=C(CCS(=O)(=O)c1ccc(Cl)cc1)N1CCN(c2ccc(F)cc2)CC1 | – | inactive: -26.7% |
| COc1cccc(C(=O)Nc2nc3c(s2)CCCC3)c1 | inconclusive [inhibitor, single point] | – |
| CCOC(=O)c1ccccc1NC(=S)N1CC(C)CC(C)C1 (configuration not stated) | inconclusive [inhibitor, partial curve, poor fit] | – |
| Cc1coc(C)c1C(=O)Nc1ccc2ccccc2c1 | inconclusive [inhibitor, single point] | – |
| OC(c1ccc(-c2ccccc2)cc1)c1ncc(-c2ccccc2Cl)[nH]1 (configuration not stated) | inconclusive [inhibitor, single point] | – |
| CCSc1ccc([C@@H]2[C@H]3C(=O)N(C)C(=O)[C@H]3[C@]3(C(=O)OC)CCCCN23)cc1OC | inconclusive [inhibitor, partial curve] | – |
| O=C(COc1ccc([N+](=O)[O-])cc1)NNC(=O)c1cccnc1 | inconclusive [inhibitor, single point] | – |
| Cc1ccc(CNC(=O)c2cc3cc(C)ccc3n2C)cc1 | inconclusive [inhibitor, full curve, poor fit] | – |
| CCOc1ccccc1NS(=O)(=O)c1ccc2c(c1)N(C)CCO2 | inconclusive [inhibitor, single point] | – |
| O=C(CN1C(=O)NC2(CCCC2)C1=O)N1CCN(c2cccc(C(F)(F)F)c2)CC1 | inconclusive [inhibitor, single point] | – |
| O=C(O)c1cccc(NC(=S)NCc2ccccc2)c1 | inconclusive [inhibitor, single point] | – |
| CCC(C)(C)NC(=O)C(Sc1ccccc1)c1ccccc1 (configuration not stated) | inconclusive [inhibitor, single point] | – |
| CCCCCC(=O)N1C[C@@H](n2cc(COC(=O)c3ccccc3)nn2)[C@H](O)C[C@@H]1c1ccc(Cl)cc1 | inconclusive [inhibitor, single point] | – |
| Cn1nc([N+](=O)[O-])nc1S(C)(=O)=O | inconclusive [inhibitor, single point] | – |
| CCN(CC)C(=O)c1nn(-c2ccccc2)c2c1C1CCC2(C)C1(C)C (configuration not stated) | inconclusive [inhibitor, partial curve, poor fit] | – |
| COCCn1cnc2c1c(=O)n(Cc1ccc(Br)cc1)c(=O)n2Cc1ccccc1 | inconclusive [inhibitor, single point] | – |
| O=C(NC1CCCCC1)c1cccc(S(=O)(=O)N2CCCCC2)c1 | inconclusive [inhibitor, partial curve] | – |

| Structure (SMILES) | Potency | activity change, negative = inhibition |
| --- | --- | --- |
| Cn1cc(CN2CCN(CC(C)(C)C)C(CCO)C2)c2ccccc21 (configuration not stated) | inconclusive [inhibitor, single point] | – |
| CCC1SC2=NC(C)=C(C(=O)OC)C(c3ccc(C)cc3)N2C1=O (configuration not stated) | inconclusive [inhibitor, single point] | – |
| Cc1cccc(Nc2nnc(SCC(=O)NCc3cccs3)s2)c1C | inconclusive [inhibitor, single point] | – |
| COc1ccccc1NC(=O)c1cc(-c2cc(OC)c(OC)c(OC)c2)nc2ccccc12 | inconclusive [inhibitor, single point] | – |
| CC(C)N(Cc1cnn(C)c1)C(=O)c1ccc(OC2CCN(Cc3ccccn3)CC2)cc1 | inconclusive [inhibitor, partial curve, poor fit] | – |
| Cc1cc(C)cc(Nc2ncc3c(n2)CCCC3=O)c1 | inconclusive [inhibitor, partial curve, poor fit] | – |
| COC(=O)[C@]12CCCCC=C1N(Cc1cccc3ccccc13)C(=O)[C@H](CC(=O)NCc1cccc(C(F)(F)F)c1)C2 | inconclusive [inhibitor, partial curve, poor fit] | – |
| CC(=O)NC(NC(=S)Nc1cccc(Br)c1)C(Cl)(Cl)Cl (configuration not stated) | inconclusive [inhibitor, partial curve, poor fit] | – |
| Cc1ccc(S(=O)(=O)N2CC3CCC2C3)cc1 (configuration not stated) | inconclusive [inhibitor, partial curve, poor fit] | – |
| CC1CCN(CCCCOc2cccc(C(C)C)c2)CC1 | inconclusive [inhibitor, single point] | – |
| O=S(=O)(N/N=C\c1ccc(-c2ccccc2Cl)o1)c1ccccc1 | inconclusive [inhibitor, partial curve] | – |
| CCOc1ccccc1OCCCC(=O)N1CCN(S(=O)(=O)c2ccc(C)cc2C)CC1 | inconclusive [inhibitor, single point] | – |
| CC(C)CC(=O)Nc1ccc(Nc2ccccc2)cc1 | inconclusive [inhibitor, partial curve, poor fit] | – |
| Cc1c(C(=O)NCc2ccc(F)cc2)oc2ccc(S(=O)(=O)N3CCOCC3)cc12 | inconclusive [inhibitor, partial curve, poor fit] | – |
| COc1cc(OC)cc(C(=O)Nc2nnc(-c3cccnc3)o2)c1 | – | inactive: 8.48% |
| N=c1sccn1CC(=O)NC(c1ccccc1)c1ccccc1 | inconclusive [inhibitor, partial curve, poor fit] | – |
| C[C@H](O)[C@@H]1CN2CCc3c([nH]c4ccccc34)[C@@H]2C[C@@H]1N(C)C(=O)Nc1cc(Cl)cc(Cl)c1 | inconclusive [inhibitor, partial curve, poor fit] | – |
| Cc1ccccc1NC(=O)c1cc2ccccn2n1 | – | inactive: -29.4% |
| CC(C)(C)C(C(=O)n1cccc1C#N)c1ccccc1 (configuration not stated) | inconclusive [inhibitor, single point] | – |
| Cc1cccc(N2CCN(C(=O)COc3ccc4ccc(=O)oc4c3)CC2)c1C | inconclusive [inhibitor, single point] | – |
| Cc1ccccc1NC(C)C(=O)N/N=C/c1ccccc1OCc1cccc(Br)c1 (configuration not stated) | inconclusive [inhibitor, partial curve, poor fit] | – |

| Structure (SMILES) | Potency | activity change, negative = inhibition |
| --- | --- | --- |
| COc1cc(OC)c(NC(=O)CCc2nc(-c3cccs3)no2)cc1Cl | inconclusive [inhibitor, partial curve, poor fit] | – |
| COc1ccc(C(=O)NCC(c2ccco2)N2CCc3ccccc3C2)cc1 (configuration not stated) | inconclusive [inhibitor, single point] | – |
| Cc1ccc(Oc2ccc(OCC(=O)NC3CCS(=O)(=O)C3)cc2)cc1 (configuration not stated) | inconclusive [inhibitor, single point] | – |
| O=C(Nc1cnn(Cc2ccc(F)cc2)c1)C(c1ccccc1)c1ccccc1 | active: 4.47 µM | – |
| Cc1ccc2sc(N(CCCN(C)C)C(=O)c3ccco3)nc2c1C | inconclusive [inhibitor, single point] | – |
| Cc1ccc(C(=O)N/N=C(\CC(C)C)c2ccccc2)cc1 | inconclusive [inhibitor, partial curve, poor fit] | – |
| CCOC(=O)c1c(NC(=O)COC(=O)/C=C/c2ccco2)sc2c1CC(C)(C)NC2(C)C | inconclusive [inhibitor, single point] | – |
| COc1cc(C(=O)Nc2sc3c(c2C(N)=O)CCC(C)C3)cc(OC)c1OC (configuration not stated) | – | inactive: 23.8% |
| CCc1ccc(S(=O)(=O)NCc2cccn2Cc2cccc(C)c2)cc1 | inconclusive [inhibitor, single point] | – |
| CCCCN(CCCC)Cc1cc2ccccc2c2c1COC2 | inconclusive [inhibitor, partial curve, poor fit] | – |
| CC(C)c1cc(NC(=O)CCl)on1 | – | inactive: 1.78% |
| Cc1cc(C=O)c(C)n1-c1ccc(NC2CCCCC2)c([N+](=O)[O-])c1 | inconclusive [inhibitor, single point] | – |
| Cn1ccc2c(N3CCCCCCC3)cc3c(c21)C1CCC3O1 (configuration not stated) | inconclusive [inhibitor, single point] | – |
| CCC(=O)NCCNc1nc2cc(C)c(C)cc2cc1C#N | – | inactive: 25.8% |
| C#CCN(C[C@@H]1[C@@H](OC(=O)NCc2ccccc2F)[C@@H](OC(=O)NCc2ccccc2F)Cn2c(=O)n(CCCCCC)c(=O)n21)S(=O)(=O)c1ccc(C)cc1 | inconclusive [inhibitor, full curve, poor fit] | – |
| CCc1nc(N2CCN(S(C)(=O)=O)CC2)c2c3c(sc2n1)CCCC3 | inconclusive [inhibitor, partial curve, poor fit] | – |
| NC(=O)c1cccc(-c2ccnc3c2CC(C(=O)NCC2CC2)O3)c1 (configuration not stated) | – | inactive: -14.9% |
| COc1cc(C(=O)Nc2ccc3c(c2)CCN3C(C)=O)cc(OC)c1OC | inconclusive [inhibitor, full curve, poor fit] | – |
| COc1ccc(C(=O)N2CCN(c3cccc(Cl)c3)CC2)c(OC)c1 | inconclusive [inhibitor, partial curve, poor fit] | – |
| CCOC(=O)c1nc(NCCc2ccccc2)sc1C | inconclusive [inhibitor, single point] | – |
